From paper PMC9954413 (Cancers, 2023)

Target: T1, Arkadia (RNF111) RING, residues 927-994 (Ark RING, 68 aa) (human, UniProt Q6ZNA4 927-994)
T1 construct: human Arkadia (RNF111), residues 927-994, 68 aa; also called wt Ark RING; source: expressed and purified as described elsewhere [31]
T1 sequence (looked up): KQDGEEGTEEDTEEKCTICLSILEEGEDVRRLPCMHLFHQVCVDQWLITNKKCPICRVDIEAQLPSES
Experiment: ITC; 1-3 mM E2 in the syringe injected (2 uL, 15-19 injections) into 100-300 uM Arkadia polypeptide in the cell; 25 °C; 50 mM KH2PO4, 50 mM K2HPO4 pH 7; single-site model
Details: both partners purified

B1: UbcH7 K96S (enzyme)
chain: not shown
notes: human UbcH7 (UBE2L3) with K96S (KPA motif changed to SPA); also called mutant UbcH7; source: site-directed mutagenesis; expressed and purified as the wild type
For B1, the dH was -0.9 kcal/mol and the “stoichiometry N” value was 1.
